In PubChem BioAssay AID588453 (National Center for Advancing Translational Sciences (NCATS), 2011):
Several values for one entry are separate records, joined by “and”; a condition that tells them apart may be missing. Equal entries are not always repeated. In all, about 390,000 compounds went through this assay and about 4,000 (1%) were called active. Inconclusive results, whose numbers are uncertain, are shown with a selection of clear calls. Calls follow the shape of the dose curve; as a rule, active = well fitted inhibition curve with a large enough effect; inconclusive = small, poorly fitted or top-dose-only effect; inactive = no such curve, though single readings can be large or run the other way. A potency beside an inconclusive call is a rough fit, not a confirmed value.

Each compound was assayed against Thioredoxin reductase 1, cytoplasmic (Rattus norvegicus) (UniProt O89049) (assay: qHTS Assay for Inhibitors of Mammalian Selenoprotein Thioredoxin Reductase 1 (TrxR1): qHTS). Settings: recombinant rTrxR1, NADPH fluorescence consumption, selenite substrate; series mostly up to 114 µM.
Method in brief: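 Rat TrxR1 (90 nM in the dispensed reagent) was pre-reduced with 400 uM NADPH for 5 min at room temperature, then incubated with compound for 15 min. After 400 uM selenite was added, NADPH fluorescence (Ex 340/Em 450 nm) was followed for 8 min.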
Also: nearly all actives have a fitted effect of over 65% in size.
Potency is read from the fitted curve at half-maximal effect; tags tell the direction and shape of the fitted curve.

Sequence of UniProt O89049 (O89049 whole entry, looked up): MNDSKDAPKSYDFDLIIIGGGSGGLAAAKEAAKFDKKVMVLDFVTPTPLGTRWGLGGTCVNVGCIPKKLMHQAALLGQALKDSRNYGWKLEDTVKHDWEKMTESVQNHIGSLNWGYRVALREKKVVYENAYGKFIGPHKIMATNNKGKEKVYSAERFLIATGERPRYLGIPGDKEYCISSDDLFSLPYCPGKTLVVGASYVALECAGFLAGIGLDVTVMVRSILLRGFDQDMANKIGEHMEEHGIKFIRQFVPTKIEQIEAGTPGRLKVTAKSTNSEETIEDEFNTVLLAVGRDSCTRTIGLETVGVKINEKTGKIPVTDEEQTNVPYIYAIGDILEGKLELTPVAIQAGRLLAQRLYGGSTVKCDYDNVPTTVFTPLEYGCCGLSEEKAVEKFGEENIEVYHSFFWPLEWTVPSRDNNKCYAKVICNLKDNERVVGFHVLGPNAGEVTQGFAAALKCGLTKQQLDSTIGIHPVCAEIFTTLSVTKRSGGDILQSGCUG

**Q.** For `CCn1c(SCC(=O)N/N=C/C(C)=C/c2ccco2)nnc1-c1ccccc1`, which Potency is on record?
**A.** Its Potency is inconclusive: 17.8 µM [inhibitor, single point].

**Q.** Which Potency does the source give for `CC1CCCN(C(=O)c2ccc([N+](=O)[O-])o2)C1` (configuration not stated) here?
**A.** The Potency was inconclusive: 31.6 µM [inhibitor, partial curve].

**Q.** How did the Potency turn out when `Nc1nc(SCC(=O)Nc2cccc(C(F)(F)F)c2)n[nH]1` was run?
**A.** The Potency was “inactive”.

**Q.** Which Potency does the source give for `CN(C)S(=O)(=O)c1cc(NC(=O)c2ccc(-n3ccnc3)c([N+](=O)[O-])c2)ccc1Cl` here?
**A.** The Potency was “inactive”.

**Q.** For `COc1ccccc1-c1c(C)oc2cc(OC(=O)c3ccco3)ccc2c1=O`, which Potency is on record?
**A.** Its Potency is inconclusive: 35.5 µM [inhibitor, partial curve, poor fit].

**Q.** `CCOc1ccc(C(=O)CCN2CCCCC2)cc1` was tested. Which Potency did it give?
**A.** Its Potency is active: 0.708 µM.

**Q.** Which Potency does the source give for `COC(=O)C1=C(C)N(c2ccc(F)c(Cl)c2)C(=O)C1` here?
**A.** Its Potency is active: 14.1 µM.

**Q.** How did the Potency turn out when `CN(C)c1nc(C=C(C#N)C#N)c(Cl)n1-c1ccc(F)cc1` was run?
**A.** The Potency was active: 4.47 µM.

**Q.** Which Potency does the source give for `CN(CC(=O)Nc1ccccc1C(F)(F)F)C(=O)CC1OC(=O)c2ccccc21` (configuration not stated) here?
**A.** The Potency was inconclusive: 44.7 µM [inhibitor, partial curve, poor fit].

**Q.** For `COc1cc(/C=N/Nc2ccccc2)ccc1OC(=O)c1cccs1`, which Potency is on record?
**A.** Its Potency is “inactive”.

**Q.** With `CC(=O)CSc1ncnc2c1oc1ccccc12` as the compound, how does the Potency read?
**A.** The Potency was inconclusive: 17.8 µM [inhibitor, single point].

**Q.** Which Potency does the source give for `CCN(CC(=O)Nc1ccc2c(c1)OCCO2)Cc1cc(=O)oc2c(C)c(C)ccc12` here?
**A.** The Potency was inconclusive: 50.1 µM [inhibitor, partial curve].

**Q.** For `OCC[C@H]1C[C@@H](O)[C@H](O)[C@]2(CCCc3ccccc3O2)O1`, which Potency is on record?
**A.** Its Potency is inconclusive: 31.6 µM [inhibitor, single point].

**Q.** `COc1ccc(C(CNC(=O)c2cc3c(s2)CCCC3)N2CCOCC2)cc1` (configuration not stated) was tested. Which Potency did it give?
**A.** The Potency was inconclusive: 89.1 µM [inhibitor, partial curve, poor fit].

**Q.** Which Potency does the source give for `Cn1nc(C(C)(C)C)cc1C(=O)NNC(=O)c1ccc(C(F)(F)F)cc1` here?
**A.** Its Potency is “inactive”.

**Q.** For `Cc1nc2sc(C(c3ccco3)N3CCc4ccccc4C3)c(O)n2n1` (configuration not stated), which Potency is on record?
**A.** The Potency was inconclusive: 3.16 µM [inhibitor, partial curve, poor fit].

**Q.** Which Potency does the source give for `COc1cc(/C=C2\CCC/C(=C\c3ccc(O)c(OC)c3)C2=O)ccc1O` here?
**A.** The Potency was inconclusive: 50.1 µM [inhibitor, partial curve, poor fit] and inconclusive: 20 µM [inhibitor, single point].

**Q.** Which Potency does the source give for `N#Cc1ccc(N=c2ssnc2Cl)cc1` here?
**A.** The Potency was inconclusive: 15.8 µM [inhibitor, full curve].

**Q.** `O=C(NCc1cccc(Cl)c1)c1cnn2c1NC(c1ccco1)CC2C(F)(F)F` (configuration not stated) was tested. Which Potency did it give?
**A.** Its Potency is inconclusive: 39.8 µM [inhibitor, single point].

**Q.** `CCOc1ccc2[nH]c(=O)c(C(c3nnnn3C3CCCCC3)N3CCN(C)CC3)cc2c1` (configuration not stated) was tested. Which Potency did it give?
**A.** The Potency was inconclusive: 89.1 µM [inhibitor, single point].

**Q.** With `O=C(NC(=S)Nc1ccc(Cc2ccncc2)cc1)c1ccccc1Cl` as the compound, how does the Potency read?
**A.** Its Potency is inconclusive: 44.7 µM [inhibitor, partial curve].

**Q.** `CCCCNC(=S)Nc1cccc2cnccc12` was tested. Which Potency did it give?
**A.** Its Potency is inconclusive: 31.6 µM [inhibitor, partial curve].

**Q.** `O=C1C=C(c2ccc(Cl)cc2)OC2(CCCC2)O1` was tested. Which Potency did it give?
**A.** Its Potency is inconclusive: 28.2 µM [inhibitor, partial curve, poor fit].

**Q.** How did the Potency turn out when `CC1=C(C)CC(C(=O)N2CCN(C/C=C/c3ccccc3)CC2)C(C(=O)O)C1` (configuration not stated) was run?
**A.** The Potency was inconclusive: 89.1 µM [inhibitor, single point].

**Q.** `CC(=O)Oc1ccc2c(=O)c(/C=N/c3cc(=O)[nH]c(=S)[nH]3)coc2c1` was tested. Which Potency did it give?
**A.** The Potency was inconclusive: 56.2 µM [inhibitor, partial curve, poor fit].

**Q.** For `CCC(C)(C)n1nnnc1C(c1cc2cc(C)ccc2[nH]c1=O)N1CCCC1` (configuration not stated), which Potency is on record?
**A.** Its Potency is inconclusive: 17.8 µM [inhibitor, full curve].

**Q.** `O=C(CN1C(=O)S/C(=C/c2ccncc2)C1=O)N1CCOCC1` was tested. Which Potency did it give?
**A.** Its Potency is inconclusive: 70.8 µM [inhibitor, partial curve].

**Q.** With `CSc1ccc(/C=C2\C=Cc3ccc([N+](=O)[O-])cc32)cc1` as the compound, how does the Potency read?
**A.** The Potency was inconclusive: 39.8 µM [inhibitor, partial curve, poor fit].

**Q.** With `NC(=O)C1CCN(C(c2ccccc2F)c2nnnn2Cc2ccco2)CC1` (configuration not stated) as the compound, how does the Potency read?
**A.** The Potency was inconclusive: 3.16 µM [inhibitor, single point].

**Q.** For `Cc1ccc(N2C(N)=C(C#N)C(c3ccsc3)C3=C2CC(C)(C)CC3=O)cc1` (configuration not stated), which Potency is on record?
**A.** The Potency was inconclusive: 70.8 µM [inhibitor, single point].

**Q.** How did the Potency turn out when `CNC(=S)/N=C(/Nc1ccccc1)c1ccccc1` was run?
**A.** The Potency was inconclusive: 89.1 µM [inhibitor, single point].

**Q.** With `Cc1ccc(S(=O)(=O)N/N=C/c2cc(Br)c(C)o2)cc1` as the compound, how does the Potency read?
**A.** Its Potency is inconclusive: 25.1 µM [inhibitor, single point].

**Q.** For `Cc1ccc(-n2ncc3c(N4CCN(CCO)CC4)ncnc32)cc1Cl`, which Potency is on record?
**A.** The Potency was “inactive”.

**Q.** How did the Potency turn out when `COc1ccc(NC(=S)Nc2ccc3nccnc3c2)cc1` was run?
**A.** The Potency was active: 15.8 µM.

**Q.** Which Potency does the source give for `CN(C1CCCCC1)S(=O)(=O)c1ccc(=S)[nH]c1` here?
**A.** Its Potency is inconclusive: 8.91 µM [inhibitor, full curve].

**Q.** For `Cc1ccc(Cc2nc3ccccc3nc2SCC(=O)NCc2ccc(F)cc2)cc1`, which Potency is on record?
**A.** Its Potency is “inactive”.

**Q.** How did the Potency turn out when `Cc1cc(S(=O)(=O)NCc2ccco2)c(C)cc1Cl` was run?
**A.** The Potency was active: 70.8 µM.

**Q.** Which Potency does the source give for `Cc1ccc(NC(=S)N2CCN(S(C)(=O)=O)CC2)cc1` here?
**A.** The Potency was inconclusive: 8.91 µM [inhibitor, full curve].

**Q.** With `Cc1ccc(C(=O)NCCC2=CCCCC2)cc1S(=O)(=O)N1CCCCC1` as the compound, how does the Potency read?
**A.** Its Potency is “inactive”.

**Q.** How did the Potency turn out when `CC(C)(C)c1ccc(CSc2nnc(-c3ccccc3NC(=O)c3ccccc3)o2)cc1` was run?
**A.** Its Potency is “inactive”.

**Q.** For `COCCN1CCN(C(=O)C2CCC(=O)N(CCc3ccccc3)C2)CC1` (configuration not stated), which Potency is on record?
**A.** The Potency was inconclusive: 70.8 µM [inhibitor, partial curve].

**Q.** With `COc1ccc(Br)c2c1C(=O)CC2` as the compound, how does the Potency read?
**A.** The Potency was inconclusive: 44.7 µM [inhibitor, partial curve, poor fit].

**Q.** Which Potency does the source give for `Cc1[nH]c2ccc(S(N)(=O)=O)cc2c1C` here?
**A.** The Potency was inconclusive: 79.4 µM [inhibitor, partial curve, poor fit].

**Q.** For `O=c1[nH]c2c(s1)C(c1ccco1)C1C3CCC(C3)C1S2` (configuration not stated), which Potency is on record?
**A.** The Potency was active: 44.7 µM.

**Q.** With `Cc1ccc(NCc2nnc(SCC(=O)c3ccccc3)n2Cc2ccco2)c(C)c1` as the compound, how does the Potency read?
**A.** Its Potency is inconclusive: 14.1 µM [inhibitor, partial curve].

**Q.** `Cc1cccn2c(=O)c3cc(C(=O)NC4CCCC4)n(C)c3nc12` was tested. Which Potency did it give?
**A.** Its Potency is “inactive”.

**Q.** `COc1ccc(NC(=O)c2cc(-c3ccccc3Cl)no2)cc1` was tested. Which Potency did it give?
**A.** Its Potency is inconclusive: 15.8 µM [inhibitor, single point].

**Q.** Which Potency does the source give for `Cn1cc([N+](=O)[O-])c(C(=O)Nc2ccc(C(=O)N3CCCCC3)cc2)n1` here?
**A.** The Potency was “inactive”.

**Q.** For `CC(=O)C1=C(C)NC(SCC(=O)c2ccc(Cl)c(Cl)c2)=C(C#N)C1c1ccco1` (configuration not stated), which Potency is on record?
**A.** Its Potency is inconclusive: 28.2 µM [inhibitor, single point].

**Q.** `Cc1ccccc1CS(=O)(=O)Cc1ccc(C(=O)NCc2ccco2)o1` was tested. Which Potency did it give?
**A.** Its Potency is active: 79.4 µM.

**Q.** For `Cc1cc[n+](-c2[nH]c(=O)sc2/C=N/NC([S-])=Nc2ccccc2)cc1`, which Potency is on record?
**A.** The Potency was inconclusive: 25.1 µM [inhibitor, partial curve, poor fit].

**Q.** Which Potency does the source give for `CC[C@H](C)/C=C(C)/C=C/C(=O)Cc1cc(O)c(C)c(O)c1C=O` here?
**A.** The Potency was inconclusive: 70.8 µM [inhibitor, partial curve, poor fit].

**Q.** `CN(CC(=O)Nc1cccc(F)c1)C(=O)c1ccc(C(=O)c2ccccc2)cc1` was tested. Which Potency did it give?
**A.** The Potency was “inactive”.

**Q.** `CC(=O)c1cccc(Nc2cc(C)nc3ccccc23)c1` was tested. Which Potency did it give?
**A.** The Potency was inconclusive: 89.1 µM [inhibitor, partial curve, poor fit].

**Q.** `COc1cc(/C=N/Nc2nc3c(c(=O)n(C)c(=O)n3C)n2Cc2ccccc2)ccc1OC(=O)c1ccco1` was tested. Which Potency did it give?
**A.** The Potency was “inactive”.

**Q.** For `O=C(c1ccco1)N1CCN(CC(O)COc2ccc(Br)cc2)CC1` (configuration not stated), which Potency is on record?
**A.** The Potency was inconclusive: 35.5 µM [inhibitor, partial curve, poor fit].

**Q.** Which Potency does the source give for `COc1ccc(C2=CC3=C(Br)C(=O)C(C)(O)C(=O)C3=CO2)cc1` (configuration not stated) here?
**A.** Its Potency is inconclusive: 70.8 µM [inhibitor, partial curve].

**Q.** How did the Potency turn out when `C#CCOc1ccc(C2C3=C(CCCC3=O)N(CC(=O)O)C3=C2C(=O)CCC3)cc1Br` was run?
**A.** The Potency was inconclusive: 25.1 µM [inhibitor, single point].

**Q.** Which Potency does the source give for `COc1ccccc1CNC(=O)CN1C(=O)CSc2c1c(C)nn2-c1ccccc1` here?
**A.** The Potency was “inactive”.

**Q.** `O=C(COc1ccc(Cl)cc1)Nc1ccccc1C(=O)OCc1cc(=O)n2ccsc2n1` was tested. Which Potency did it give?
**A.** The Potency was “inactive”.

**Q.** `CC(=O)c1cccc(NC(=O)CCCN2C(=O)COc3ccc(C)cc32)c1` was tested. Which Potency did it give?
**A.** The Potency was inconclusive: 31.6 µM [inhibitor, full curve, poor fit].

**Q.** `Cc1ccc(-c2cc(NC(=O)C(C)Oc3ccc(C)c(C)c3)on2)cc1` (configuration not stated) was tested. Which Potency did it give?
**A.** Its Potency is “inactive”.

**Q.** How did the Potency turn out when `COCCCn1c(SCc2cc(=O)[nH]c3ccccc23)nnc1-c1ccco1` was run?
**A.** The Potency was inconclusive: 50.1 µM [inhibitor, partial curve].

**Q.** `O=C(Nc1nnc(Cc2ccc(Cl)cc2)s1)C1CCN(C(=O)c2ccco2)CC1` was tested. Which Potency did it give?
**A.** Its Potency is inconclusive: 79.4 µM [inhibitor, partial curve, poor fit].

**Q.** For `CCOC(=O)c1ccc(NC(=O)CCc2ccc(C)o2)cc1`, which Potency is on record?
**A.** Its Potency is inconclusive: 44.7 µM [inhibitor, single point].

**Q.** `N#CC(C#N)=Cc1cnc(N2CCN(c3ccccc3)CC2)s1` was tested. Which Potency did it give?
**A.** Its Potency is inconclusive: 56.2 µM [inhibitor, partial curve, poor fit].

**Q.** How did the Potency turn out when `CCOCCOC(=O)c1[nH]c2c(c1C)C(=O)CC(c1ccccc1)C2` (configuration not stated) was run?
**A.** Its Potency is “inactive”.
